This is one part of the list.
B1: PhoQ; a variant is named by its letters at X, in order, P23837 (parent)
chain: MKKLLRLFFPLSLRVRFLLATAAVVLVLSLAYGMVALIGYSVSFDKTTFRLLRGESNLFYTLAKWENNKLHVELPENIDKQSPTMTLIYDENGQLLWAQRDVPWLMKMIQPDWLKSNGFHEIEADVNDTSLLLSGDHSIQQQLQEVREDDDDAEMTHSVAVNVYPATSRMPKLTIVVVDTIPVELKSSYMVWSWFIYVLSANLLLVIPLLWVAAWWSLRPIEALAKEVRELEEHNRELLNPATTRELTSLVRNLNRLLKSERERYDKYRTTLTDLTHSLKTPLXXLQXXLRSLRSEKMSVSDAEPVMLEQISRISQQIGYYLHRASMRGGTLLSRELHPVAPLLDNLTSALNKVYQRKGVNISLDISPEISFVGEQNDFVEVMGNVLDNACKYCLEFVEISARQTDEHLYIVVEDDGPGIPLSKREVIFDRGQRVDTLRPGQGVGLAVAREITEQYEGKIVAGESMLGGARMEVIFGRQHSAPKDE

Variants of: B1
Experiment: enrichment ratio after two sorts for PhoP signalling (ratio (wild type AVST 3.29)); higher = more functional
Conditions: with PhoP (E. coli)
NPEF showed an enrichment ratio of no more than 0.25. VCES showed an enrichment ratio of no more than 0.25. AIYV showed an enrichment ratio of no more than 0.25. In the case of TNPQ, the enrichment ratio is reported as no more than 0.25. Work on NFDA yielded an enrichment ratio of no more than 0.25. Work on DEVM yielded an enrichment ratio of no more than 0.25. EHSM showed an enrichment ratio of no more than 0.25. In the case of PFDW, the enrichment ratio is reported as no more than 0.25. NESE gave an enrichment ratio of no more than 0.25. For SSVT, the enrichment ratio was 14.6. With RLAC the enrichment ratio was no more than 0.25. FFCT was tested, and the enrichment ratio was no more than 0.25. Variant GMAK has an enrichment ratio of no more than 0.25. With RCPT the enrichment ratio was no more than 0.25. In the case of AHLT, the enrichment ratio is reported as no more than 0.25. For TDHT, the enrichment ratio was no more than 0.25. Variant PVQQ has an enrichment ratio of no more than 0.25. GECH gave an enrichment ratio of 4.96. TMML showed an enrichment ratio of 6.33. SQLK was tested, and the enrichment ratio was no more than 0.25. Variant TTLT has an enrichment ratio of 15.8. Variant KKES has an enrichment ratio of no more than 0.25. RALH gave an enrichment ratio of no more than 0.25. AWLT gave an enrichment ratio of no more than 0.25. In the case of WNGV, the enrichment ratio is reported as no more than 0.25. TIDF was tested, and the enrichment ratio was 3.66. With VRAV the enrichment ratio was no more than 0.25. With NAQL the enrichment ratio was no more than 0.25. In the case of MWRI, the enrichment ratio is reported as no more than 0.25. Variant PLQE has an enrichment ratio of no more than 0.25. For RGFL, the enrichment ratio was no more than 0.25. ECCF gave an enrichment ratio of no more than 0.25. ASNE showed an enrichment ratio of no more than 0.25. ATMT gave an enrichment ratio of no more than 0.25. Variant PAPR has an enrichment ratio of no more than 0.25. With FHHF the enrichment ratio was no more than 0.25. With TLWL the enrichment ratio was no more than 0.25. With ATNF the enrichment ratio was 20.9. RFMP showed an enrichment ratio of no more than 0.25. For AAKQ, the enrichment ratio was no more than 0.25. DMIL showed an enrichment ratio of no more than 0.25. KTRD gave an enrichment ratio of no more than 0.25. With VHYK the enrichment ratio was no more than 0.25. For ERSG, the enrichment ratio was no more than 0.25. LGFR showed an enrichment ratio of no more than 0.25. PHFA was tested, and the enrichment ratio was no more than 0.25. FYLM was tested, and the enrichment ratio was no more than 0.25. TIHP showed an enrichment ratio of no more than 0.25. Variant KPHQ has an enrichment ratio of no more than 0.25. In the case of DTSL, the enrichment ratio is reported as no more than 0.25. NPNL was tested, and the enrichment ratio was no more than 0.25. VVLQ showed an enrichment ratio of no more than 0.25. Variant PDLW has an enrichment ratio of no more than 0.25. For WFQP, the enrichment ratio was no more than 0.25. Variant SCTR has an enrichment ratio of 1.82. For AGCH, the enrichment ratio was 11.6. With KMQA the enrichment ratio was no more than 0.25. AKTQ was tested, and the enrichment ratio was no more than 0.25. GKLW showed an enrichment ratio of no more than 0.25. For IAYQ, the enrichment ratio was no more than 0.25. WHTS showed an enrichment ratio of no more than 0.25. SGTD was tested, and the enrichment ratio was no more than 0.25. With YQKK the enrichment ratio was no more than 0.25. HSEG gave an enrichment ratio of no more than 0.25. EKDT gave an enrichment ratio of no more than 0.25. With RVGK the enrichment ratio was no more than 0.25. In the case of WYFV, the enrichment ratio is reported as no more than 0.25. For MMYQ, the enrichment ratio was no more than 0.25. For VFNF, the enrichment ratio was no more than 0.25. For FFKL, the enrichment ratio was no more than 0.25. TAVG gave an enrichment ratio of no more than 0.25. Work on YACQ yielded an enrichment ratio of no more than 0.25. NPYY gave an enrichment ratio of no more than 0.25. DGFF gave an enrichment ratio of no more than 0.25. PPPV showed an enrichment ratio of no more than 0.25. For LHNK, the enrichment ratio was no more than 0.25. DEHT was tested, and the enrichment ratio was no more than 0.25. With IWGH the enrichment ratio was no more than 0.25. For DVEP, the enrichment ratio was no more than 0.25. YPFN was tested, and the enrichment ratio was no more than 0.25. Variant ALCK has an enrichment ratio of 8.18. Work on WEHR yielded an enrichment ratio of no more than 0.25. GPMP was tested, and the enrichment ratio was no more than 0.25. QQDV gave an enrichment ratio of no more than 0.25. With NKMI the enrichment ratio was no more than 0.25. Variant NALN has an enrichment ratio of no more than 0.25. For QMIS, the enrichment ratio was no more than 0.25. For GNYH, the enrichment ratio was no more than 0.25. With QTMP the enrichment ratio was no more than 0.25. Work on KYTD yielded an enrichment ratio of no more than 0.25. FVFL was tested, and the enrichment ratio was no more than 0.25. Variant EHQF has an enrichment ratio of no more than 0.25. Variant MNRC has an enrichment ratio of no more than 0.25. Work on VNWT yielded an enrichment ratio of no more than 0.25. For VTAG, the enrichment ratio was no more than 0.25. SEFY showed an enrichment ratio of 5.8. Variant WEIL has an enrichment ratio of no more than 0.25. Work on AYPV yielded an enrichment ratio of no more than 0.25. In the case of TTMT, the enrichment ratio is reported as 2.97. NHCI showed an enrichment ratio of no more than 0.25. VELS gave an enrichment ratio of 4.74. DLCK showed an enrichment ratio of no more than 0.25. Work on KHET yielded an enrichment ratio of no more than 0.25. In the case of GPFA, the enrichment ratio is reported as no more than 0.25. Variant HFGW has an enrichment ratio of no more than 0.25. DAYE showed an enrichment ratio of no more than 0.25. In the case of PNMK, the enrichment ratio is reported as no more than 0.25. YRHD showed an enrichment ratio of no more than 0.25. Variant EMLW has an enrichment ratio of no more than 0.25. MWYQ showed an enrichment ratio of no more than 0.25. With YKTR the enrichment ratio was no more than 0.25. Work on HDTQ yielded an enrichment ratio of no more than 0.25. Work on DLTK yielded an enrichment ratio of no more than 0.25. Variant ASVG has an enrichment ratio of 14.7. Work on RSSS yielded an enrichment ratio of no more than 0.25. In the case of DAAV, the enrichment ratio is reported as no more than 0.25. FVKS was tested, and the enrichment ratio was no more than 0.25. FTAK showed an enrichment ratio of no more than 0.25. YYCK gave an enrichment ratio of no more than 0.25. FKCI showed an enrichment ratio of no more than 0.25. Work on NQNS yielded an enrichment ratio of no more than 0.25. For DDHY, the enrichment ratio was no more than 0.25. Work on LEQI yielded an enrichment ratio of no more than 0.25. In the case of LNIR, the enrichment ratio is reported as no more than 0.25. VGHD showed an enrichment ratio of no more than 0.25. For MAKA, the enrichment ratio was no more than 0.25. SPQI gave an enrichment ratio of no more than 0.25. IMNL gave an enrichment ratio of no more than 0.25. IQFR showed an enrichment ratio of no more than 0.25. Variant EDFP has an enrichment ratio of no more than 0.25. For DSCW, the enrichment ratio was no more than 0.25. Work on WMSM yielded an enrichment ratio of no more than 0.25. Work on HDFG yielded an enrichment ratio of no more than 0.25. Variant DAQE has an enrichment ratio of no more than 0.25. With WNTT the enrichment ratio was no more than 0.25. Variant NFLF has an enrichment ratio of no more than 0.25. In the case of WVGW, the enrichment ratio is reported as no more than 0.25. RCNM was tested, and the enrichment ratio was no more than 0.25. ESQA gave an enrichment ratio of no more than 0.25. Work on RLDN yielded an enrichment ratio of no more than 0.25. VMMV gave an enrichment ratio of no more than 0.25. VSFH gave an enrichment ratio of no more than 0.25. With KPPD the enrichment ratio was no more than 0.25. Variant WKGI has an enrichment ratio of no more than 0.25. RVSN was tested, and the enrichment ratio was no more than 0.25. With MDGV the enrichment ratio was no more than 0.25. With QQNE the enrichment ratio was no more than 0.25. GDFP gave an enrichment ratio of no more than 0.25. Work on DIAV yielded an enrichment ratio of no more than 0.25. Work on QQIN yielded an enrichment ratio of no more than 0.25. With SPRW the enrichment ratio was no more than 0.25. With KCYV the enrichment ratio was no more than 0.25. VCIS showed an enrichment ratio of 0.315.

— a collection of fitness landscapes (doi:10.1126/science.1257360)
